Data reported in publication PMC9911399, “Two distinct binding modes provide the RNA-binding protein RbFox with extraordinary sequence specificity”.
Numbering of substitutions follows the chain as printed; changes in the protein carry UniProt numbers. The list shows a part of the results.

T1: RBFOX1 RRM RbFoxmut (Fox-RRM*) (Homo sapiens, UniProt Q9NWB1 109-208, R118D;E147R;N151S;E152T)
T1 sequence: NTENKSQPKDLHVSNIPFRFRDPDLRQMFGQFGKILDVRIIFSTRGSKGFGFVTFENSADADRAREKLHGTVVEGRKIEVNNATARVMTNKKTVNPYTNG

B1: GGUAUAA (DNA:RNA)
RNA: GGGAGACCGGAAUUCAGAUUGUCCGGUAUAAUUAAAUCCCGUCGUAGCCACCA
DNA 1: CAATCTGAATTCCGGTCTCCC
DNA 2: TGGTGGCTACGACGGGATT
B2: CAGUGCA (DNA:RNA)
RNA: B1 RNA with G25C, G26A, U27G, A28U, U29G, A30C
DNA 1: CAATCTGAATTCCGGTCTCCC
DNA 2: TGGTGGCTACGACGGGATT
B3: UUAGCAU (DNA:RNA)
RNA: B1 RNA with G25U, G26U, U27A, A28G, U29C, A31U
DNA 1: CAATCTGAATTCCGGTCTCCC
DNA 2: TGGTGGCTACGACGGGATT
B4: GCACUUG (DNA:RNA)
RNA: B1 RNA with G26C, U27A, A28C, A30U, A31G
DNA 1: CAATCTGAATTCCGGTCTCCC
DNA 2: TGGTGGCTACGACGGGATT
B5: CUAGCAC (DNA:RNA)
RNA: B1 RNA with G25C, G26U, U27A, A28G, U29C, A31C
DNA 1: CAATCTGAATTCCGGTCTCCC
DNA 2: TGGTGGCTACGACGGGATT
B6: CCGACUG (DNA:RNA)
RNA: B1 RNA with G25C, G26C, U27G, U29C, A30U, A31G
DNA 1: CAATCTGAATTCCGGTCTCCC
DNA 2: TGGTGGCTACGACGGGATT
B7: CCCACAG (DNA:RNA)
RNA: B1 RNA with G25C, G26C, U27C, U29C, A31G
DNA 1: CAATCTGAATTCCGGTCTCCC
DNA 2: TGGTGGCTACGACGGGATT
B8: UCCCGCA (DNA:RNA)
RNA: B1 RNA with G25U, G26C, U27C, A28C, U29G, A30C
DNA 1: CAATCTGAATTCCGGTCTCCC
DNA 2: TGGTGGCTACGACGGGATT
B9: GUAAUUA (DNA:RNA)
RNA: B1 RNA with G26U, U27A, A30U
DNA 1: CAATCTGAATTCCGGTCTCCC
DNA 2: TGGTGGCTACGACGGGATT
B10: UGGGAAG (DNA:RNA)
RNA: B1 RNA with G25U, U27G, A28G, U29A, A31G
DNA 1: CAATCTGAATTCCGGTCTCCC
DNA 2: TGGTGGCTACGACGGGATT
B11: GCAGACU (DNA:RNA)
RNA: B1 RNA with G26C, U27A, A28G, U29A, A30C, A31U
DNA 1: CAATCTGAATTCCGGTCTCCC
DNA 2: TGGTGGCTACGACGGGATT
B12: CGACGGU (DNA:RNA)
RNA: B1 RNA with G25C, U27A, A28C, U29G, A30G, A31U
DNA 1: CAATCTGAATTCCGGTCTCCC
DNA 2: TGGTGGCTACGACGGGATT
B13: AACAACU (DNA:RNA)
RNA: B1 RNA with G25A, G26A, U27C, U29A, A30C, A31U
DNA 1: CAATCTGAATTCCGGTCTCCC
DNA 2: TGGTGGCTACGACGGGATT
B14: CGUUCCC (DNA:RNA)
RNA: B1 RNA with G25C, A28U, U29C, A30C, A31C
DNA 1: CAATCTGAATTCCGGTCTCCC
DNA 2: TGGTGGCTACGACGGGATT
B15: AGAUUGC (DNA:RNA)
RNA: B1 RNA with G25A, U27A, A28U, A30G, A31C
DNA 1: CAATCTGAATTCCGGTCTCCC
DNA 2: TGGTGGCTACGACGGGATT
B16: GACACCC (DNA:RNA)
RNA: B1 RNA with G26A, U27C, U29C, A30C, A31C
DNA 1: CAATCTGAATTCCGGTCTCCC
DNA 2: TGGTGGCTACGACGGGATT
B17: UCUUGUG (DNA:RNA)
RNA: B1 RNA with G25U, G26C, A28U, U29G, A30U, A31G
DNA 1: CAATCTGAATTCCGGTCTCCC
DNA 2: TGGTGGCTACGACGGGATT
B18: GCCAGGA (DNA:RNA)
RNA: B1 RNA with G26C, U27C, U29G, A30G
DNA 1: CAATCTGAATTCCGGTCTCCC
DNA 2: TGGTGGCTACGACGGGATT
B19: ACCAUUU (DNA:RNA)
RNA: B1 RNA with G25A, G26C, U27C, A30U, A31U
DNA 1: CAATCTGAATTCCGGTCTCCC
DNA 2: TGGTGGCTACGACGGGATT
B20: AAAUUUG (DNA:RNA)
RNA: B1 RNA with G25A, G26A, U27A, A28U, A30U, A31G
DNA 1: CAATCTGAATTCCGGTCTCCC
DNA 2: TGGTGGCTACGACGGGATT

The binders below were run against T1, RBFOX1 RRM RbFoxmut (Fox-RRM*) (assay: EMSA; HiTS-Eq, 1 nM pool, 10 min; buffer printed only for the single-RNA assays: 10 mM Tris pH 7.5, 150 mM NaCl, 3.4 mM EDTA, 0.001% NP-40, 30 C). Conditions: tags: His6 N-terminal (pET28a); label: 5' 32P.
Summary of the method: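 Purified wild-type or mutant RbFox RRM at increasing concentrations was equilibrated with 1 nM of 5′-radiolabelled RNA carrying 7 randomized nucleotides for 10 min in 50 µL. Unbound RNA was separated by 8% native PAGE and sequenced. Relative association constants came from read-count changes of each RNA species compared with the control reaction, normalised to the cognate motif.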
For B1, the binding signal was 0.106 KA relative to UGCAUGU. With B2 the binding signal was 0.17 KA relative to UGCAUGU. With B3 the binding signal was 0.103 KA relative to UGCAUGU. In the case of B4, the binding signal is reported as 0.113 KA relative to UGCAUGU. B5 was tested, and the binding signal was 0.0787 KA relative to UGCAUGU. In the case of B6, the binding signal is reported as 0.139 KA relative to UGCAUGU. In the case of B7, the binding signal is reported as 0.106 KA relative to UGCAUGU. For B8, the binding signal was 0.0862 KA relative to UGCAUGU. For B9, the binding signal was 0.127 KA relative to UGCAUGU. B10 was tested, and the binding signal was 0.136 KA relative to UGCAUGU. In the case of B11, the binding signal is reported as 0.0704 KA relative to UGCAUGU. B12 was tested, and the binding signal was 0.113 KA relative to UGCAUGU. With B13 the binding signal was 0.0472 KA relative to UGCAUGU. B14 was tested, and the binding signal was 0.0596 KA relative to UGCAUGU. In the case of B15, the binding signal is reported as 0.14 KA relative to UGCAUGU. With B16 the binding signal was 0.057 KA relative to UGCAUGU. B17 was tested, and the binding signal was 0.156 KA relative to UGCAUGU. In the case of B18, the binding signal is reported as 0.0534 KA relative to UGCAUGU. With B19 the binding signal was 0.101 KA relative to UGCAUGU. B20 was tested, and the binding signal was 0.0621 KA relative to UGCAUGU.
